Data on 43 molecules can be found in ChEMBL document CHEMBL4888484, “Replenishing the malaria drug discovery pipeline: Screening and hit evaluation of the MMV Hit Generation Library 1 (HGL1) against asexual blood stage Plasmodium falciparum ,using a nano luciferase reporter read-out” (2022).

Screen size: about 150,000 compounds; about 540 (0.36%) showed an effect of 50% or more. Some of the results follow.

The test concerns Plasmodium falciparum. Nature of the test: Primary screen in NF54 nanoGlo assay, in single point, at 2uM, 72h; a lower Z score goes with more inhibition. The conditions noted are these: timepoint 72 hour. The class given is functional, Erythrocyte.
`CCc1cc(=O)c2cc(NS(=O)(=O)c3cccc(COC)c3)ccc2[nH]1`: the “% Inhibition” value turned out to be 0% and the Z score was -0.03.
Turning to `CC1=CC(C)C(C2OCCN2CC2COC3(CCCCC3)O2)C(C)C1` (stereo unspecified), the “% Inhibition” value was found to be 3% and the Z score was -0.51.
As for `Cc1cc(C)n(Cc2c(C(=O)N3CCCCC3)noc2C)n1`, the “% Inhibition” value is listed as 4% and the Z score is -0.43.
For `Cc1ccc2c(c1)N(C)C(=O)c1cc(NC(=O)C3CCN(S(C)(=O)=O)CC3)ccc1O2`, the “% Inhibition” value was -9% and the Z score is recorded as 1.36.
The matching figures for `Cc1noc(C)c1CN1CC2(CCN(C(=O)[C@H]3CCCO3)CC2)CC1=O`: -20% and 2.38.
For `O=C1NC(=O)C2(CCN(C(=O)c3cn4ccccc4n3)CC2)N1`, the “% Inhibition” value was -12% and the Z score is reported as 2.32.
In the case of `COc1ccc(-c2nc(N3CCCCC3)nc3nn4c(C)cc(C)nc4c23)cc1`, the “% Inhibition” value is on record as -10% and the Z score is listed as 1.62.
For the molecule `COC1CC2C(=O)N(C3CCN(c4ccc(Cl)cc4)C3)C(=O)N2C1` (stereo unspecified), the “% Inhibition” value is -11% and the Z score was found to be 1.65.
On to `CC(C)(CC(=O)N[C@@]1(C)CCS(=O)(=O)C1)C(F)(F)F`, for which the “% Inhibition” value was -15% and the Z score was 1.3.
Take `CC(C)(C)OC(=O)NCCCN1Cc2ccccc2C1`: the “% Inhibition” value is listed as -2% and the Z score is listed as 0.27.
On to `Cc1cc(CN(C)C(=O)C[C@@H](c2cccc(O)c2)c2ccccc2Cl)on1`, for which the “% Inhibition” value is given as -14% and the Z score is reported as 1.64.
For `CC(C)c1noc([C@H](C)N2CCCC2)n1` the same measures were 3% and -0.4.
As to `c1sc(C2CC2)nc1CN1CCC(=C2CC2)CC1`, the “% Inhibition” value is -11% and the Z score is reported as 1.82.
Consider `CCCc1noc(CN(C)[C@H]2CS(=O)(=O)c3ccccc32)n1`, for which the “% Inhibition” value was -13% and the Z score is listed as 1.51.
On to `C#Cc1ccc(COC(=O)c2sc(COC)nc2C)cc1`, for which the “% Inhibition” value is reported as -20% and the Z score came to 2.53.
The matching figures for `Cc1cc2[nH]c(CN3CCCC[C@H]3c3nccs3)cc(=O)n2n1`: 1% and -0.22.
For the molecule `CN(Cc1nccs1)c1nc(N)nc2c1CCCC2`, the “% Inhibition” value was 8% and the Z score is -1.09.
Turning to `COc1ccnc(-c2ccc(F)c3cccnc23)c1`, the “% Inhibition” value was -4% and the Z score is on record as 0.58.
On to `CCN(CCc1nccs1)C(=O)CN1CCCCC1=O`, for which the “% Inhibition” value is recorded as -5% and the Z score is 0.85.
Consider `Cc1ccc(Cl)cc1N1CCN(C(=O)N2CCC(C)CC2)CC1`, for which the “% Inhibition” value worked out at 0% and the Z score is -0.01.
On to `CCOc1cnc(C(=O)N2C[C@@H]3CCCN3c3ccccc32)cn1`, for which the “% Inhibition” value is listed as -6% and the Z score stood at 0.83.
With `Cc1nnc(CC(=O)Nc2cn(CC(C)C)nc2C(F)F)s1`, the “% Inhibition” value is -7% and the Z score was determined as 0.99.
Consider `COc1ccc(OC)c(N2CCN(C(=O)c3ccc(F)cc3)[C@@H](C)C2=O)c1`, for which the “% Inhibition” value is recorded as -1% and the Z score is reported as 0.17.
Consider `COc1cccc(NC(=O)CN2C(=O)NC3(CCCCCCC3)C2=O)c1`, for which the “% Inhibition” value is recorded as -13% and the Z score is given as 1.88.
The matching figures for `CN(C)Cc1ccccc1C(=O)N[C@H]1CCCn2ncnc21`: -7% and 1.43.
Regarding `Cc1ccc(CNC(=O)Cn2nc3c4cccc(C)c4ncn3c2=O)cc1`, the “% Inhibition” value is given as -6% and the Z score is listed as 1.03.
For the molecule `CC(=O)[C@@H]1CCCCN1S(=O)(=O)Cc1nocc1C`, the “% Inhibition” value is recorded as 4% and the Z score is listed as -0.55.
On to `C[C@H]1CNc2c(Nc3ncnc4ccsc34)cnn2C1`, for which the “% Inhibition” value was 6% and the Z score was -0.83.
For `O=C(O)CN1CCC[C@@H]1CCCc1ccccc1` the same measures were -4% and 0.47.
On to `c1nc2nc(C3CC3)cc(NCCN3CCOCC3)n2n1`, for which the “% Inhibition” value was -11% and the Z score turned out to be 2.03.
Turning to `CCOC(=O)c1cc(S(=O)(=O)NCCO)cnc1C(F)(F)F`, the “% Inhibition” value is recorded as -8% and the Z score was determined as 1.05.
On to `CC(C)COc1ccc(NC(=O)N[C@H]2CC[C@@H](C(=O)O)C2)cn1`, for which the “% Inhibition” value is -1% and the Z score was 0.11.
Consider `Cc1cc(NC(=O)N(C)C2CCNCC2)c(Cl)cc1F`, for which the “% Inhibition” value is listed as -4% and the Z score came out at 0.79.
`COCC(C)(C)CN[C@@H](C)C1=Cc2ccccc2OC1`: the “% Inhibition” value is on record as -12% and the Z score is on record as 1.31.
Take `CC1CCCC(c2noc(CS(=O)(=O)C3CC3)n2)C1` (stereo unspecified): the “% Inhibition” value is listed as 3% and the Z score is -0.45.
`CC[C@@H](CC#N)NC(=O)c1ccccc1OC1CC1`: the “% Inhibition” value was 1% and the Z score is reported as -0.1.
Turning to `CC(NCC(=O)Nc1ccnn1C1CCCC1)C(C)n1cccn1` (stereo unspecified), the “% Inhibition” value is on record as -17% and the Z score came out at 1.47.
For `Cc1nc(-c2ccc(C)c(S(=O)(=O)NCC(=O)N3CCCC3)c2)no1` the same measures were -10% and 1.17.
The matching figures for `CCCN1CCCN(Cc2ccc3ccccc3n2)CC1=O`: -16% and 2.35.
For the molecule `Cc1cc(CN(C)C2CCCCCC2)on1`, the “% Inhibition” value is 13% and the Z score is -1.49.
As to `Cc1cccnc1NCCNc1cc([C@H]2C[C@H](N)C2)nc(C2CC2)n1`, the “% Inhibition” value turned out to be 1% and the Z score is listed as -0.13.
Turning to `Cc1ccc(C)c(N(C(=O)[C@H]2CCCN(C(=O)c3cccs3)C2)C(C)C)c1`, the “% Inhibition” value was 0% and the Z score was -0.05.
For `O=C(Nc1cc(Cl)cc(Cl)c1)N1CCC2CCNC2C1` (stereo unspecified) the same measures were 3% and -0.57.

For orientation: % Inhibition means the drop in the measured response relative to a control, in per cent.
